In PubChem BioAssay (NCATS):
Where “and” joins values, the source holds several entries; their conditions need not be identical. Identical values can stand only once. Inconclusive means that the source gave no clear call. Such entries were picked first, then a sample of the others. Potencies of inconclusive entries are doubtful fits and often do not repeat. Calls of active or inactive are those of the source. The call rests on the fitted dose curve; in most records, active means well fitted curve in the direction sought with a large enough effect; inconclusive means small, poorly fitted or top-dose-only effect, or another doubt; inactive means no such curve, though single readings can be large; an effect the other way counts as inactive or inconclusive. Where a SMILES comes first, the peptide text is derived from it.

Tests used:
[1] = Viability qHTS for spleen associated tyrosine kinase inhibitor (SYKi) naive MV4-11 cells (AID 1963823); details: MV4-11 AML viability, CellTiter-Glo luminescence, 72 h; series mostly up to 45 µM; further: nearly all actives have a fitted effect of over 40% in size
Summary of the method: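 Compounds were dispensed acoustically onto plates, MV4-11 cells (SYKi-naive) added at 500 per well, and plates incubated 72 hr at 37 C. CellTiter-Glo was added and luminescence measured after 10 min.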

[2] = Viability qHTS for spleen associated tyrosine kinase inhibitor (SYKi) drug resistant MV4-11 cells (AID 1963824); further: nearly all actives have a fitted effect of over 35% in size
Summary of the method: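 CellTiter-Glo luminescence, read 10 min after reagent addition, reports viability after a 72 hr compound exposure. Cells are an MV4-11 line made resistant to SYK inhibition, seeded at 500 per well onto compound-containing plates.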

[3] = Quantitative highthroughput screen to assess conditional lethalithy of NOMO1 cells grown in RPMI1640 with dialyzed fetal bovine serum (RPMI+ds) (AID 1963877); further: nearly all actives have a fitted effect of over 30% in size
Summary of the method: (§1)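 Each medium arm—HPLM with 10% dialyzed FBS, or RPMI1640 with 5 mM glucose and 10% untreated or dialyzed FBS—was screened against an 11-point, 3-fold compound titration for 48 h at 37 °C, with CellTiter-Glo luminescence as endpoint.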

[4] = Quantitative highthroughput screen to assess conditional lethalithy of NOMO1 cells grown in Human Plasma-Like Medium with dialyzed fetal bovine serum (HPLM+ds) (AID 1963878); details: NOMO1 AML cells in HPLM+ds, CellTiter-Glo viability, 48 h; viability: at 45.8 µM (top of the series); further: nearly all actives have a fitted effect of over 35% in size
Summary of the method: as §1

[5] = Quantitative highthroughput screen to assess conditional lethalithy of P12 Ichikawa cells grown in RPMI1640 with dialyzed fetal bovine serum (RPMI+ds) (AID 1963880); details: Potency: P12-Ichikawa viability; further: nearly all actives have a fitted effect of over 35% in size
Summary of the method: as §1

[6] = Quantitative highthroughput screen to assess conditional lethalithy of P12 Ichikawa cells grown in RPMI1640 with untreated serum (RPMI+s) (AID 1963881); details: Potency: viability; further: nearly all actives have a fitted effect of over 35% in size
Summary of the method: as §1

[7] = Quantitative highthroughput screen to assess conditional lethalithy of P12 Ichikawa cells grown in Human Plasma-Like Medium with dialyzed fetal bovine serum (HPLM+ds) (AID 1963879); details: Potency: viability; further: nearly all actives have a fitted effect of over 35% in size
Summary of the method: as §1

[8] = Quantitative highthroughput screen to assess conditional lethalithy of SEM cells grown in Human Plasma-Like Medium with dialyzed fetal bovine serum (HPLM+ds) (AID 1963882); further: nearly all actives have a fitted effect of over 35% in size
Summary of the method: as §1

[9] = Quantitative highthroughput screen to assess conditional lethalithy of SEM cells grown in RPMI1640 with unreated serum (RPMI+s) (AID 1963883); details: SEM B-ALL cells, CellTiter-Glo viability, 48 h; viability: at 45.8 µM (top of the series); further: nearly all actives have a fitted effect of over 35% in size
Summary of the method: as §1

[10] = Quantitative highthroughput screen to assess conditional lethalithy of SEM cells grown in RPMI1640 with dialyzed fetal bovine serum (RPMI+ds) (AID 1963884); details: SEM B-ALL cells, RPMI+dialyzed FBS, CellTiter-Glo viability, 48 h; viability: at 45.8 µM (top of the series); further: nearly all actives have a fitted effect of over 35% in size
Summary of the method: as §1

[11] = Cellular viability qHTS for adrenocortical cancer (ACC) cell line SW-13 (AID 1963989); details: SW-13 ACC cells viability, CellTiter-Glo, 48 h; activity (max response): stronger effect = lower value; further: nearly all actives have a fitted effect of over 65% in size
Summary of the method: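 48 h treatment, SW-13 in ITS/DMEM serum-free; doses up to 46 uM; readout CellTiter-Glo luminescence; curve fit four-parameter logistic.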

[12] = Cellular viability qHTS for adrenocortical cancer (ACC) cell line NCI-H295R (AID 1963990); details: CellTiter-Glo ATP luminescence, 48 h; series mostly up to 46.1 µM; further: nearly all actives have a fitted effect of over 60% in size
Summary of the method: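 Compound titrations (up to 46 uM final) are applied to NCI-H295R cultures for 48 h at 37C. Viable cell number is estimated by CellTiter-Glo signal, normalised to DMSO and doxorubicin controls.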
Potency means the concentration at half of the fitted maximal effect; tags describe the fitted curve by direction and shape.

SMILES: N#Cc1cc(NC(=O)Nc2nnc(-c3ccncc3)s2)ccc1-c1cn[nH]c1
- Potency [1]: inactive
- Potency [2]: inactive
- Potency [3]: inactive
- Potency [4]: inactive
- Potency [5]: inactive
- Potency [6]: inactive

SMILES: Cc1ccc(C2=Nc3ccc(Cl)cc3OC2)cc1
- Potency [1]: inconclusive: 16.6 µM [cytotoxic, partial curve, poor fit]
- Potency [2]: inconclusive: 16.6 µM [cytotoxic, partial curve]
- Potency [3]: inactive
- Potency [4]: inactive
- Potency [7]: inconclusive: 16.6 µM [cytotoxic, partial curve]
- Potency [5]: inconclusive: 18.7 µM [cytotoxic, partial curve]
- Potency [8]: inconclusive: 8.33 µM [cytotoxic, partial curve]
- Potency [9]: inconclusive: 16.6 µM [cytotoxic, partial curve]
- Potency [10]: inconclusive: 5.26 µM [cytotoxic, partial curve]

SMILES: CC(C)(N)C(=O)N[C@H](COCc1ccccc1)C(=O)N1CCC2(CC1)CN(S(C)(=O)=O)c1ccccc12
- Potency [1]: inconclusive: 23.1 µM [cytotoxic, partial curve, poor fit] and inconclusive: 10.5 µM [cytotoxic, partial curve]
- Potency [2]: inconclusive: 23.1 µM [cytotoxic, partial curve] and inconclusive: 16.6 µM [cytotoxic, partial curve]
- Potency [3]: active: 10.5 µM
- Potency [4]: inconclusive: 13.2 µM [cytotoxic, partial curve]
- Potency [7]: inconclusive: 26.4 µM [cytotoxic, single point]
- Potency [8]: inconclusive: 20.9 µM [cytotoxic, partial curve]
- Potency [9]: inconclusive: 18.7 µM [cytotoxic, partial curve]
- Potency [10]: inconclusive: 16.6 µM [cytotoxic, partial curve]

SMILES: O=C(NC[C@H](O)CO)c1ccncc1Nc1ccc(I)cc1F
- Potency [1]: active: 0.235 µM
- Potency [2]: active: 0.166 µM
- Potency [3]: inconclusive: 0.0833 µM [cytotoxic, full curve]
- Potency [4]: inconclusive: 0.0662 µM [cytotoxic, full curve]
- Potency [5]: inconclusive: 13.2 µM [cytotoxic, partial curve, poor fit]
- Potency [6]: inconclusive: 11.8 µM [cytotoxic, partial curve, poor fit]
- Potency [9]: inconclusive: 6.62 µM [cytotoxic, partial curve, poor fit]
- Potency [10]: inconclusive: 1.18 µM [cytotoxic, full curve, poor fit]
- Potency [11]: inconclusive: 5.01 µM [cytotoxic, partial curve]

SMILES: COC(=O)Nc1nc2ccc(S(=O)c3ccccc3)cc2[nH]1 (centres undefined)
- Potency [1]: active: 16.6 µM and active: 841 nM
- Potency [2]: active: 14.8 µM and active: 668 nM
- Potency [3]: inconclusive: 18.7 µM [cytotoxic, partial curve, poor fit]
- Potency [4]: inconclusive: 18.7 µM [cytotoxic, partial curve]
- Potency [6]: inconclusive: 6.62 µM [cytotoxic, partial curve, poor fit]
- Potency [8]: inconclusive: 8.33 µM [cytotoxic, full curve]
- Potency [9]: inconclusive: 8.33 µM [cytotoxic, full curve]
- Potency [10]: inconclusive: 6.62 µM [cytotoxic, full curve]

SMILES: CCCCCCCCCCCC1=C(O)C(=O)C=C(O)C1=O
- Potency [1]: inconclusive: 37.2 µM [cytotoxic, single point]
- Potency [2]: inconclusive: 33.2 µM [cytotoxic, single point]
- Potency [3]: inconclusive: 0.418 µM [cytotoxic, full curve]
- Potency [4]: inconclusive: 0.418 µM [cytotoxic, full curve]
- Potency [5]: active: 3.32 µM
- Potency [10]: inconclusive: 0.0209 µM [rising, full curve, poor fit]

SMILES: COC(=O)[C@H](Cc1ccccc1)NC(=O)[C@@H](N)CC(=O)O (H-Asp-Phe-OMe)
- Potency [1]: inactive
- Potency [2]: inactive
- Potency [3]: inactive
- Potency [4]: inactive
- Potency [5]: inactive
- Potency [6]: inactive
- Potency [8]: inactive
- Potency [9]: inactive
- Potency [12]: inactive

SMILES: COc1cc2ncnc(Nc3ccc(F)c(Cl)c3)c2cc1OCCCN1CCOCC1
- Potency [1]: active: 4.22 µM and inconclusive: 3.26 µM [cytotoxic, full curve] and inconclusive: 13.2 µM [cytotoxic, partial curve]
- Potency [2]: inconclusive: 14.8 µM [cytotoxic, partial curve]
- Potency [3]: inconclusive: 54 µM [cytotoxic, partial curve, poor fit]
- Potency [4]: inconclusive: 42.9 µM [cytotoxic, partial curve]
- Potency [7]: inconclusive: 60.5 µM [cytotoxic, single point]
- Potency [5]: inactive
- Potency [10]: inconclusive: 38.2 µM [cytotoxic, partial curve]
- Potency [11]: inconclusive: 2.06 µM [cytotoxic, full curve] and inconclusive: 10 µM [cytotoxic, full curve]
- Potency [12]: inconclusive: 5.8 µM [cytotoxic, partial curve, poor fit] and inactive
